Laboratory results from the supplement of paper PMC4967469.
Lines with a small IC50 respond at low doses; fits outside the tested doses are given as limits. AUC is the area under the same curve over the 256-fold range up to the top dose, as a fraction: 1 means no effect, lower means more sensitive. Where the top dose is marked as inferred, it was calculated from the reported fits.

How the values were obtained:
Experiment in all cases: Viability of human cancer cell lines after 72 h of drug (GDSC screen)
ACHP (KIN001-260) = compound: N#Cc1c(C2CCNCC2)cc(-c2c(O)cccc2OCC2CC2)nc1N [ACHP (KIN001-260)]; settings: top dose 20 µM; top dose inferred
Description: (§1)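 Human cancer cell lines in 384-well plates, medium with 10% serum, drug for 72 h over a 256-fold dose range (nine 2-fold or five 4-fold steps up to the top dose). Adherent lines were fixed and stained with the nucleic acid dye Syto60, suspension lines read with resazurin; signal relative to control wells, capped at 0 and 100%. One two-parameter sigmoid per drug and line, fitted in a mixed model over all curves with the slope shared within a line.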

CAY10603 = compound: CC(C)(C)OC(=O)Nc1ccc(-c2cc(C(=O)NCCCCCCC(=O)NO)no2)cc1 [CAY10603]; settings: top dose 20 µM; top dose inferred
Description: as §1

CH5424802 = compound: CCc1cc2c(cc1N1CCC(N3CCOCC3)CC1)C(C)(C)c1[nH]c3cc(C#N)ccc3c1C2=O [CH5424802]; settings: top dose 5.12 µM; top dose inferred
Description: as §1

XMD8-92 = compound: CCOc1cc(N2CCC(O)CC2)ccc1Nc1ncc2c(n1)N(C)c1ccccc1C(=O)N2C [XMD8-92]; settings: top dose 10 µM; top dose inferred
Description: as §1

Row | Cell Line | AUC (ACHP (KIN001-260)) | IC50 (ACHP (KIN001-260)) [µM] | AUC (CAY10603) | IC50 (CAY10603) [µM] | AUC (CH5424802) | IC50 (CH5424802) [µM] | AUC (XMD8-92) | IC50 (XMD8-92) [µM]
1 | DoTc2-4510 (cervix, adherent) | 0.984 | > 20 | 0.725 | 5.24 | 0.985 | > 5.12 | 0.894 | > 10
2 | EC-GI-10 (oesophagus, adherent) | 0.988 | > 20 | 0.982 | > 20 | 0.989 | > 5.12 | 0.926 | > 10
3 | EFM-192A (breast, adherent) | 0.964 | > 20 | 0.625 | 2.87 | 0.983 | > 5.12 | 0.971 | > 10
4 | EKVX (lung adenocarcinoma, adherent) | 0.962 | > 20 | 0.799 | > 20 | 0.959 | > 5.12 | 0.924 | > 10
5 | EMC-BAC-1 (lung adenocarcinoma, adherent) | 0.953 | > 20 | 0.592 | 2.31 | 0.83 | 3.83 | 0.929 | > 10
6 | EMC-BAC-2 (lung adenocarcinoma, adherent) | 0.982 | > 20 | 0.509 | 1.33 | 0.974 | > 5.12 | 0.848 | 9.62
7 | EN (endometrium, adherent) | 0.945 | > 20 | 0.566 | 1.99 | 0.977 | > 5.12 | 0.98 | > 10
8 | EPLC-272H (lung squamous cell carcinoma, adherent) | 0.926 | > 20 | 0.354 | 0.466 | 0.851 | 4.75 | 0.823 | 6.95
9 | ES1 (Ewing sarcoma, adherent) | 0.921 | > 20 | 0.324 | 0.406 | 0.986 | > 5.12 | 0.936 | > 10
10 | ES3 (Ewing sarcoma, adherent) | 0.932 | > 20 | 0.387 | 0.6 | 0.902 | > 5.12 | 0.882 | > 10
11 | ES4 (Ewing sarcoma, adherent) | 0.953 | > 20 | 0.659 | 3.71 | 0.98 | > 5.12 | 0.919 | > 10
12 | ES5 (Ewing sarcoma, adherent) | 0.882 | > 20 | 0.2 | 0.137 | 0.821 | 3.57 | 0.87 | > 10
13 | ES6 (Ewing sarcoma, adherent) | 0.898 | > 20 | 0.552 | 1.79 | 0.893 | > 5.12 | 0.979 | > 10
14 | ES7 (Ewing sarcoma, adherent) | 0.815 | 11.4 | 0.214 | 0.175 | 0.816 | 2.93 | 0.939 | > 10
15 | ES8 (Ewing sarcoma, adherent) | 0.859 | 14.6 | 0.238 | 0.234 | 0.969 | > 5.12 | 0.911 | > 10
16 | ES-2 (ovary, adherent) | 0.916 | > 20 | 0.275 | 0.317 | 0.991 | > 5.12 | 0.99 | > 10

Row | Cell Line | AUC (ACHP (KIN001-260)) | IC50 (ACHP (KIN001-260)) [µM] | AUC (CAY10603) | IC50 (CAY10603) [µM] | AUC (CH5424802) | IC50 (CH5424802) [µM] | AUC (XMD8-92) | IC50 (XMD8-92) [µM]
17 | ESO26 (oesophagus, adherent) | 0.955 | > 20 | 0.49 | 1.18 | 0.857 | 3.8 | 0.859 | 7.52
18 | ESO51 (oesophagus, semi-adherent) | 0.931 | > 20 | 0.545 | 1.74 | 0.92 | > 5.12 | 0.978 | > 10
19 | ESS-1 (endometrium, adherent) | 0.99 | > 20 | 0.478 | 1.1 | 0.947 | > 5.12 | 0.944 | > 10
20 | ETK-1 (biliary tract, adherent) | 0.868 | > 20 | 0.544 | 1.67 | 0.973 | > 5.12 | 0.859 | > 10
21 | EVSA-T (breast, adherent) | 0.501 | 1.25 | 0.429 | 0.824 | 0.877 | 3.89 | 0.917 | > 10
22 | EW-1 (Ewing sarcoma, semi-adherent) | 0.851 | 13.4 | 0.292 | 0.343 | 0.973 | > 5.12 | 0.988 | > 10
23 | EW-7 (Ewing sarcoma, semi-adherent) | 0.852 | 12.7 | 0.395 | 0.668 | 0.903 | > 5.12 | 0.986 | > 10
24 | EW-11 (Ewing sarcoma, adherent) | 0.952 | > 20 | 0.443 | 0.838 | 0.633 | 0.833 | 0.814 | 7.53
25 | EW-16 (Ewing sarcoma, adherent) | 0.923 | > 20 | 0.347 | 0.461 | 0.971 | > 5.12 | 0.96 | > 10
26 | EW-24 (Ewing sarcoma, semi-adherent) | 0.989 | > 20 | 0.836 | 11.1 | 0.993 | > 5.12 | 0.926 | > 10
27 | EoL-1-cell (haematopoietic neoplasm, suspension) | 0.834 | 11 | 0.268 | 0.301 | 0.947 | > 5.12 | 0.863 | 7.05
28 | FADU (head and neck, adherent) | 0.988 | > 20 | 0.791 | 8.61 | 0.982 | > 5.12 | 0.874 | 9.1
29 | FLO-1 (oesophagus, adherent) | 0.922 | > 20 | 0.555 | 1.88 | 0.946 | > 5.12 | 0.885 | > 10
30 | FTC-133 (thyroid, adherent) | 0.983 | > 20 | 0.78 | 9.09 | 0.985 | > 5.12 | 0.949 | > 10
31 | Farage (B-cell lymphoma, suspension) | 0.981 | > 20 | 0.348 | 0.516 | 0.993 | > 5.12 | 0.992 | > 10
